The supplement of paper PMC8728848
The other results are listed elsewhere or left out.

Columns and labels:
Assay in all cases: glycan array binding signal (z-score within array); higher = stronger binding
Details in all cases: glycan notation: IUPAC condensed, linker removed
[1] = biological target: Fuc(a1-2)[Gal(a1-3)]Gal(b1-3)GlcNAc(b1-6)GalNAc
Method in brief: (§1)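 Glycan array data came from 3228 arrays in the Consortium for Functional Glycomics database, and only arrays with an available protein sequence were kept. Glycan names were put into IUPAC-condensed notation, and columns mapping to the same glycan were averaged. The binding signal is a within-array Z-score, averaged across arrays of one protein sequence run at different concentrations or buffers and across linkers. A negative Z-score can be read as non-binding.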

[2] = biological target: Fuc(a1-2)[Gal(a1-3)]Gal(b1-4)Glc
Method in brief: as §1

[3] = biological target: Fuc(a1-2)[Gal(a1-3)]Gal(b1-4)GlcNAc
Method in brief: as §1

[4] = biological target: Fuc(a1-2)[Gal(a1-3)]Gal(b1-4)GlcNAc(b1-2)Man
Method in brief: as §1

[5] = biological target: Fuc(a1-2)[Gal(a1-3)]Gal(b1-4)GlcNAc(b1-2)Man(a1-3)[Fuc(a1-2)[Gal(a1-3)]Gal(b1-4)GlcNAc(b1-2)Man(a1-6)]Man(b1-4)GlcNAc(b1-4)GlcNAc
Method in brief: as §1

[6] = biological target: Fuc(a1-2)[Gal(a1-3)]Gal(b1-4)GlcNAc(b1-2)Man(a1-3)[Fuc(a1-2)[Gal(a1-3)]Gal(b1-4)GlcNAc(b1-2)Man(a1-6)]Man(b1-4)GlcNAc(b1-4)[Fuc(a1-6)]GlcNAc
Method in brief: as §1

[7] = biological target: Fuc(a1-2)[Gal(a1-3)]Gal(b1-4)GlcNAc(b1-3)GalNAc
Method in brief: as §1

[8] = biological target: Fuc(a1-2)[Gal(a1-3)]Gal(b1-4)GlcNAc(b1-3)[Fuc(a1-2)[Gal(a1-3)]Gal(b1-4)GlcNAc(b1-6)]GalNAc
Method in brief: as §1

[9] = biological target: Fuc(a1-2)[Gal(a1-3)]Gal(b1-4)GlcNAc(b1-6)GalNAc
Method in brief: as §1

[10] = biological target: Fuc(a1-2)[Gal(a1-3)]Gal(b1-4)[Fuc(a1-3)]Glc
Method in brief: as §1

[11] = biological target: Fuc(a1-2)[Gal(a1-3)]Gal(b1-4)[Fuc(a1-3)]GlcNAc
Method in brief: as §1

[12] = biological target: Fuc(a1-2)[Gal(a1-3)]Gal(b1-4)[Fuc(a1-3)]GlcNAc(b1-3)GalNAc
Method in brief: as §1

[13] = biological target: Fuc(a1-2)[Gal(a1-4)]Gal(b1-4)GlcNAc
Method in brief: as §1

[14] = biological target: Fuc(a1-2)[GalNAc(a1-3)]Gal
Method in brief: as §1

[15] = biological target: Fuc(a1-2)[GalNAc(a1-3)]Gal(b1-3)GalNAc(a1-3)[Fuc(a1-2)]Gal(b1-4)GlcNAc
Method in brief: as §1

[16] = biological target: Fuc(a1-2)[GalNAc(a1-3)]Gal(b1-3)GalNAc(b1-3)Gal(a1-4)Gal(b1-4)Glc
Method in brief: as §1

[17] = biological target: Fuc(a1-2)[GalNAc(a1-3)]Gal(b1-3)GlcNAc
Method in brief: as §1

[18] = biological target: Fuc(a1-2)[GalNAc(a1-3)]Gal(b1-3)GlcNAc(b1-2)Man(a1-3)[Fuc(a1-2)[GalNAc(a1-3)]Gal(b1-3)GlcNAc(b1-2)Man(a1-6)]Man(b1-4)GlcNAc(b1-4)GlcNAc
Method in brief: as §1

[19] = biological target: Fuc(a1-2)[GalNAc(a1-3)]Gal(b1-3)GlcNAc(b1-2)Man(a1-3)[Fuc(a1-2)[GalNAc(a1-3)]Gal(b1-3)GlcNAc(b1-2)Man(a1-6)]Man(b1-4)GlcNAc(b1-4)[Fuc(a1-6)]GlcNAc
Method in brief: as §1

[20] = biological target: Fuc(a1-2)[GalNAc(a1-3)]Gal(b1-3)GlcNAc(b1-3)GalNAc
Method in brief: as §1

[21] = biological target: Fuc(a1-2)[GalNAc(a1-3)]Gal(b1-3)GlcNAc(b1-6)GalNAc
Method in brief: as §1

[22] = biological target: Fuc(a1-2)[GalNAc(a1-3)]Gal(b1-4)Glc
Method in brief: as §1

[23] = biological target: Fuc(a1-2)[GalNAc(a1-3)]Gal(b1-4)GlcNAc
Method in brief: as §1

[24] = biological target: Fuc(a1-2)[GalNAc(a1-3)]Gal(b1-4)GlcNAc(b1-2)Man
Method in brief: as §1

[25] = biological target: Fuc(a1-2)[GalNAc(a1-3)]Gal(b1-4)GlcNAc(b1-2)Man(a1-3)[Fuc(a1-2)[GalNAc(a1-3)]Gal(b1-4)GlcNAc(b1-2)Man(a1-6)]Man(b1-4)GlcNAc(b1-4)GlcNAc
Method in brief: as §1

[26] = biological target: Fuc(a1-2)[GalNAc(a1-3)]Gal(b1-4)GlcNAc(b1-2)Man(a1-3)[Fuc(a1-2)[GalNAc(a1-3)]Gal(b1-4)GlcNAc(b1-2)Man(a1-6)]Man(b1-4)GlcNAc(b1-4)[Fuc(a1-6)]GlcNAc
Method in brief: as §1

[27] = biological target: Fuc(a1-2)[GalNAc(a1-3)]Gal(b1-4)GlcNAc(b1-3)Gal(b1-4)GlcNAc
Method in brief: as §1

[28] = biological target: Fuc(a1-2)[GalNAc(a1-3)]Gal(b1-4)GlcNAc(b1-3)Gal(b1-4)GlcNAc(b1-3)Gal(b1-4)GlcNAc
Method in brief: as §1

[29] = biological target: Fuc(a1-2)[GalNAc(a1-3)]Gal(b1-4)GlcNAc(b1-3)GalNAc
Method in brief: as §1

[30] = biological target: Fuc(a1-2)[GalNAc(a1-3)]Gal(b1-4)GlcNAc(b1-3)[Fuc(a1-2)[GalNAc(a1-3)]Gal(b1-4)GlcNAc(b1-6)]GalNAc
Method in brief: as §1

[31] = biological target: Fuc(a1-2)[GalNAc(a1-3)]Gal(b1-4)GlcNAc(b1-6)GalNAc
Method in brief: as §1

[32] = biological target: Fuc(a1-2)[GalNAc(a1-3)]Gal(b1-4)[Fuc(a1-3)]GlcNAc
Method in brief: as §1

[33] = biological target: Fuc(a1-2)[GalNAc(a1-3)]Gal(b1-4)[Fuc(a1-3)]GlcNAc(b1-3)GalNAc
Method in brief: as §1

[34] = biological target: Fuc(a1-2)[GalNAc(a1-4)]Gal(b1-4)GlcNAc
Method in brief: as §1

[35] = biological target: Fuc(a1-2)[GalNAc(b1-3)]Gal
Method in brief: as §1

[36] = biological target: Fuc(a1-3)GlcNAc
Method in brief: as §1

[37] = biological target: Fuc(a1-3)[Gal(b1-4)]Glc6S
Method in brief: as §1

[38] = biological target: Fuc(a1-3)[Gal(b1-4)]GlcNAc
Method in brief: as §1

[39] = biological target: Fuc(a1-3)[Gal(b1-4)]GlcNAc(b1-2)Man
Method in brief: as §1

[40] = biological target: Fuc(a1-3)[Gal(b1-4)]GlcNAc(b1-2)Man(a1-3)[Fuc(a1-3)[Gal(b1-4)]GlcNAc(b1-2)Man(a1-6)]Man(b1-4)GlcNAc(b1-4)GlcNAc
Method in brief: as §1

[41] = biological target: Fuc(a1-3)[Gal(b1-4)]GlcNAc(b1-2)Man(a1-3)[Fuc(a1-3)[Gal(b1-4)]GlcNAc(b1-2)Man(a1-6)]Man(b1-4)GlcNAc(b1-4)[Fuc(a1-6)]GlcNAc
Method in brief: as §1

[42] = biological target: Fuc(a1-3)[Gal(b1-4)]GlcNAc(b1-3)Gal(b1-3)[Fuc(a1-4)]GlcNAc
Method in brief: as §1

[43] = biological target: Fuc(a1-3)[Gal(b1-4)]GlcNAc(b1-3)Gal(b1-4)[Fuc(a1-3)]GlcNAc
Method in brief: as §1

[44] = biological target: Fuc(a1-3)[Gal(b1-4)]GlcNAc(b1-3)Gal(b1-4)[Fuc(a1-3)]GlcNAc(b1-3)Gal(b1-4)[Fuc(a1-3)]GlcNAc
Method in brief: as §1

[45] = biological target: Fuc(a1-3)[Gal(b1-4)]GlcNAc(b1-3)GalNAc
Method in brief: as §1

B1: AAL (Agrocybe aegerita), Q6WY08 (protein)
chain: MQGVNIYNISAGTSVDLAAPVTTGDIVTFFSSALNLNAGAGNPNNTTLNLFAENGAYLLHIAFRLQENVIIFNSRQPDGPWLVEQRVSDVANQFAGIDGKAMVTVFDHGDKYQVVINEKTVIQYTKQISGLTLSLSYNATEETSIFSTVVEAVTYTGLALEHHHHHH
[1]
  glycan array binding signal (z-score): -0.15
[2]
  glycan array binding signal (z-score): -0.15
[3]
  glycan array binding signal (z-score): -0.146
[4]
  glycan array binding signal (z-score): -0.122
[5]
  glycan array binding signal (z-score): -0.072
[6]
  glycan array binding signal (z-score): -0.114
[7]
  glycan array binding signal (z-score): -0.175
[8]
  glycan array binding signal (z-score): -0.138
[9]
  glycan array binding signal (z-score): -0.145
[10]
  glycan array binding signal (z-score): -0.16
[11]
  glycan array binding signal (z-score): -0.137
[12]
  glycan array binding signal (z-score): -0.136
[13]
  glycan array binding signal (z-score): -0.155
[14]
  glycan array binding signal (z-score): -0.138
[15]
  glycan array binding signal (z-score): -0.145
[16]
  glycan array binding signal (z-score): -0.112
[17]
  glycan array binding signal (z-score): -0.152
[18]
  glycan array binding signal (z-score): -0.14
[19]
  glycan array binding signal (z-score): -0.157
[20]
  glycan array binding signal (z-score): -0.154
[21]
  glycan array binding signal (z-score): -0.13
[22]
  glycan array binding signal (z-score): -0.16
[23]
  glycan array binding signal (z-score): -0.153
[24]
  glycan array binding signal (z-score): -0.152
[25]
  glycan array binding signal (z-score): -0.141
[26]
  glycan array binding signal (z-score): -0.157
[27]
  glycan array binding signal (z-score): -0.112
[28]
  glycan array binding signal (z-score): -0.112
[29]
  glycan array binding signal (z-score): -0.144
[30]
  glycan array binding signal (z-score): -0.146
[31]
  glycan array binding signal (z-score): -0.152
[32]
  glycan array binding signal (z-score): -0.152
[33]
  glycan array binding signal (z-score): -0.143
[34]
  glycan array binding signal (z-score): -0.144
[35]
  glycan array binding signal (z-score): -0.154
[36]
  glycan array binding signal (z-score): -0.144
[37]
  glycan array binding signal (z-score): -0.142
[38]
  glycan array binding signal (z-score): -0.142
[39]
  glycan array binding signal (z-score): -0.164
[40]
  glycan array binding signal (z-score): -0.139
[41]
  glycan array binding signal (z-score): -0.121
[42]
  glycan array binding signal (z-score): -0.163
[43]
  glycan array binding signal (z-score): -0.139
[44]
  glycan array binding signal (z-score): -0.144
[45]
  glycan array binding signal (z-score): -0.142
